From PubChem BioAssay AID686978 (National Center for Advancing Translational Sciences (NCATS), 2013)
Hit rate of the full screen: of about 420,000 compounds, about 64,000 (15%) were called active. Inconclusive results, whose numbers are uncertain, are shown with a selection of clear calls. The call rests on the fitted dose curve; in most records, active means well fitted inhibition curve with a large enough effect; inconclusive means small, poorly fitted or top-dose-only effect; inactive means flat fitted curve, though single readings scatter. No potency is given beside an inconclusive call; the fits are too rough.

assay: qHTS for Inhibitors of human tyrosyl-DNA phosphodiesterase 1 (TDP1): qHTS in cells in absence of CPT; conditions: DT40 Tdp1-/- hTDP1 cells, no CPT, ATP luminescence, 48 h; activity change, negative = growth inhibition: at 46.2 µM (top of the series); further: nearly all actives have a fitted effect of over 55% in size
Method in brief: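 Growth of hTDP1-complemented DT40 Tdp1-knockout cells is measured by ATP luminescence after at least 48 hr compound exposure at 37 °C, with DMSO substituting for the 20 nM CPT used in the parallel screen.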
On the % scale 0 is the no-effect control and ±100 the full control effect; potency means the concentration at half of the fitted maximal effect; tags describe the fitted curve by direction and shape.

| SMILES | activity change, negative = growth inhibition | Potency |
| --- | --- | --- |
| O=C(NCc1ccccc1)C(c1ccco1)N(C(=O)c1csnn1)c1ccccc1 (centres undefined) | inactive: -9.68% | – |
| CC1(C)CC2(CC(c3ccc(F)cc3)c3ccc(O)cc3O2)NC(=S)N1 (centres undefined) | – | inconclusive [inhibitor, partial curve] |
| COc1ccc(-c2ccc(CN3C(C(C)C)C(=O)N(Cc4cn(CCC5OCCO5)nn4)CCS3(=O)=O)cc2)cc1 (centres undefined) | – | active: 8.2 µM |
| Cc1ccc2c(c1)C(=C(C#N)C#N)C(=O)N2CCN1CCOCC1 | – | inconclusive [inhibitor, single point] |
| Cc1cccc(OCC(=O)N(Cc2ccc(C(C)C)cc2)Cc2ccco2)c1C | – | active: 20.6 µM |
| CCN1CCN(CCCOc2ccccc2-c2ccccc2)CC1 | – | inconclusive [inhibitor, single point] |
| Cc1nonc1CC(=O)N1CCCC(C(=O)c2ccc(Cl)cc2)C1 (centres undefined) | – | inconclusive [inhibitor, partial curve] |
| O=C(Nc1nnc(S(=O)(=O)N2CCCC2)s1)c1ccccc1F | – | inconclusive [inhibitor, single point] |
| C[C@H](CO)N1C[C@H](C)[C@@H](CN(C)C(=O)NC2CCCC2)Oc2cc(Br)ccc2S1(=O)=O | – | inconclusive [inhibitor, partial curve] |
| Cn1c(N)c(S(=O)(=O)NCc2ccc(F)cc2)c(=O)n(C)c1=O | inactive: 9.72% | – |
| CCN(C(=O)c1nn(-c2ccc(C)cc2)c(=O)c2c1c1ccccc1n2C)c1ccc(F)cc1 | – | active: 13 µM |
| O=C(CSc1ccc(-c2ccncc2)nn1)c1ccc(Cl)cc1 | inactive: -19.2% | – |
| CCOc1ccc(C(C)=O)cc1COC(=O)c1ccccc1C(=O)N(C)Cc1ccccc1 | – | active: 7.31 µM |
| O=C(NCCc1ccccc1)c1ccc(CSc2nc3ccncc3n2Cc2ccccc2F)cc1 | – | inconclusive [inhibitor, single point] |
| CCN(CC)c1ccc(S(=O)(=O)N2CCCCC2)cc1NC(=O)CSCc1c(C)noc1C | – | inconclusive [inhibitor, single point] |
| CC(C)COc1ccc(-c2nonc2NC(=O)c2ccc(F)cc2)cc1 | – | inconclusive [inhibitor, full curve] |
| O=C1c2ccccc2NC(c2ccc(-c3ccc(Br)cc3)o2)N1O (centres undefined) | – | inconclusive [inhibitor, single point] |
| O=C(NCC(F)(F)F)c1ccc(S(=O)(=O)NCCc2ccc3c(c2)OCCO3)cc1 | – | inconclusive [inhibitor, partial curve] |
| CC(C)[C@H]1CN=C2N(CCNC(=O)CCC3CCCCC3)[C@H](Cc3ccc(O)cc3)CN21 | – | active: 8.2 µM |
